# Measured values published in the supplement of paper PMC8728848.
# The list shows a part of the results.
# B1: CV-IIL (Chromobacterium violaceum) (protein)
# chain: AQQGVFTLPARINFGVTVLVNSAATQHVEIFVDNEPRAAFSGVGTGDNNLGTKVINSGSGNVRVQITANGRQSDLVSSQLVLANKLNLAVVGSEDGTDMDYNDSIVILNWPLG
# What was measured:
# Test in all cases: glycan array binding signal (z-score within array); higher = stronger binding
# Settings in all cases: glycan notation: IUPAC condensed, linker removed
# [1] = molecular target: Fuc(a1-2)Gal
# How it was run: (§1)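 The binding signal is a Z-score computed within each array. Data were drawn from 3228 arrays in the Consortium for Functional Glycomics database, restricted to those with a known protein sequence. Scores were averaged over arrays of the same protein sequence at different concentrations or buffers, and over linkers, and negative values can be taken as non-binding.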
# [2] = molecular target: Fuc(a1-2)Gal(b1-3)GalNAc
# How it was run: as §1
# [3] = molecular target: Fuc(a1-2)Gal(b1-3)GalNAc(b1-3)Gal
# How it was run: as §1
# [4] = molecular target: Fuc(a1-2)Gal(b1-3)GalNAc(b1-3)Gal(a1-4)Gal(b1-4)Glc
# How it was run: as §1
# [5] = molecular target: Fuc(a1-2)Gal(b1-3)GalNAc(b1-4)[Neu5Ac(a2-3)]Gal(b1-4)Glc
# How it was run: as §1
# [6] = molecular target: Fuc(a1-2)Gal(b1-3)GlcNAc
# How it was run: as §1
# [7] = molecular target: Fuc(a1-2)Gal(b1-3)GlcNAc(b1-3)Gal(b1-4)Glc
# How it was run: as §1
# [8] = molecular target: Fuc(a1-2)Gal(b1-3)[Fuc(a1-4)]GlcNAc
# How it was run: as §1
# [9] = molecular target: Fuc(a1-2)Gal(b1-4)Glc
# How it was run: as §1
# [10] = molecular target: Fuc(a1-2)Gal(b1-4)GlcNAc
# How it was run: as §1
# [11] = molecular target: Fuc(a1-2)Gal(b1-4)GlcNAc(b1-3)Gal(b1-4)GlcNAc
# How it was run: as §1
# [12] = molecular target: Fuc(a1-2)Gal(b1-4)GlcNAc(b1-3)Gal(b1-4)GlcNAc(b1-3)Gal(b1-4)GlcNAc
# How it was run: as §1
# [13] = molecular target: Fuc(a1-2)Gal(b1-4)[Fuc(a1-3)]GlcNAc
# How it was run: as §1
# [14] = molecular target: Fuc(a1-2)Gal(b1-4)[Fuc(a1-3)]GlcNAc(b1-3)Gal(b1-4)[Fuc(a1-3)]GlcNAc
# How it was run: as §1
# [15] = molecular target: Fuc(a1-2)Gal(b1-4)[Fuc(a1-3)]GlcNAc(b1-3)Gal(b1-4)[Fuc(a1-3)]GlcNAc(b1-3)Gal(b1-4)[Fuc(a1-3)]GlcNAc
# How it was run: as §1
# [16] = molecular target: Fuc(a1-2)GlcNAc
# How it was run: as §1
# [17] = molecular target: Fuc(a1-2)[Gal(a1-3)]Gal
# How it was run: as §1
# [18] = molecular target: Fuc(a1-2)[Gal(a1-3)]Gal(b1-3)GlcNAc
# How it was run: as §1
# [19] = molecular target: Fuc(a1-2)[Gal(a1-3)]Gal(b1-4)Glc
# How it was run: as §1
# [20] = molecular target: Fuc(a1-2)[Gal(a1-3)]Gal(b1-4)GlcNAc
# How it was run: as §1
# [21] = molecular target: Fuc(a1-2)[Gal(a1-3)]Gal(b1-4)[Fuc(a1-3)]GlcNAc
# How it was run: as §1
# [22] = molecular target: Fuc(a1-2)[Gal(a1-4)]Gal(b1-4)GlcNAc
# How it was run: as §1
# [23] = molecular target: Fuc(a1-2)[GalNAc(a1-3)]Gal
# How it was run: as §1
# [24] = molecular target: Fuc(a1-2)[GalNAc(a1-3)]Gal(b1-3)GlcNAc
# How it was run: as §1
# [25] = molecular target: Fuc(a1-2)[GalNAc(a1-3)]Gal(b1-4)Glc
# How it was run: as §1
# [26] = molecular target: Fuc(a1-2)[GalNAc(a1-3)]Gal(b1-4)GlcNAc
# How it was run: as §1
# [27] = molecular target: Fuc(a1-2)[GalNAc(a1-3)]Gal(b1-4)[Fuc(a1-3)]GlcNAc
# How it was run: as §1
# [28] = molecular target: Fuc(a1-2)[GalNAc(a1-4)]Gal(b1-4)GlcNAc
# How it was run: as §1
# [29] = molecular target: Fuc(a1-2)[GalNAc(b1-3)]Gal
# How it was run: as §1
# [30] = molecular target: Fuc(a1-3)GlcNAc
# How it was run: as §1
# [31] = molecular target: Fuc(a1-3)[Gal(b1-4)]GlcNAc
# How it was run: as §1
# [32] = molecular target: Fuc(a1-3)[Gal(b1-4)]GlcNAc(b1-4)Gal(b1-4)[Fuc(a1-3)]GlcNAc
# How it was run: as §1
# [33] = molecular target: Fuc(a1-3)[Gal(b1-4)]GlcNAc(b1-4)Gal(b1-4)[Fuc(a1-3)]GlcNAc(b1-4)Gal(b1-4)[Fuc(a1-3)]GlcNAc
# How it was run: as §1
# [34] = molecular target: Fuc(a1-3)[Gal3S(b1-4)]GlcNAc
# How it was run: as §1
# [35] = molecular target: Fuc(a1-3)[GalNAc(b1-4)]GlcNAc
# How it was run: as §1
# [36] = molecular target: Fuc(a1-4)GlcNAc
# How it was run: as §1
# [37] = molecular target: Fuc(b1-3)GlcNAc
# How it was run: as §1
# [38] = molecular target: Gal(a1-2)Gal
# How it was run: as §1
# [39] = molecular target: Gal(a1-3)Gal
# How it was run: as §1
# [40] = molecular target: Gal(a1-3)Gal(b1-3)GlcNAc
# How it was run: as §1
# [41] = molecular target: Gal(a1-3)Gal(b1-4)Glc
# How it was run: as §1
# [42] = molecular target: Gal(a1-3)Gal(b1-4)GlcNAc
# How it was run: as §1
# [43] = molecular target: Gal(a1-3)Gal(b1-4)[Fuc(a1-3)]GlcNAc
# How it was run: as §1
# [44] = molecular target: Gal(a1-3)GalNAc
# How it was run: as §1
# [45] = molecular target: Gal(a1-3)[Gal(a1-4)]Gal(b1-4)GlcNAc
# How it was run: as §1
binder,measurement,setting,value
B1,glycan array binding signal (z-score),[1],2.57
same,glycan array binding signal (z-score),[2],2.07
same,glycan array binding signal (z-score),[3],-0.367
same,glycan array binding signal (z-score),[4],1.26
same,glycan array binding signal (z-score),[5],1.33
same,glycan array binding signal (z-score),[6],2.67
same,glycan array binding signal (z-score),[7],2.22
same,glycan array binding signal (z-score),[8],2.2
same,glycan array binding signal (z-score),[9],2.58
same,glycan array binding signal (z-score),[10],2.98
same,glycan array binding signal (z-score),[11],2.62
same,glycan array binding signal (z-score),[12],2.31
same,glycan array binding signal (z-score),[13],2.21
same,glycan array binding signal (z-score),[14],2.16
same,glycan array binding signal (z-score),[15],1.65
same,glycan array binding signal (z-score),[16],1.5
same,glycan array binding signal (z-score),[17],-0.242
same,glycan array binding signal (z-score),[18],-0.474
same,glycan array binding signal (z-score),[19],-0.393
same,glycan array binding signal (z-score),[20],-0.476
same,glycan array binding signal (z-score),[21],-0.245
same,glycan array binding signal (z-score),[22],1.68
same,glycan array binding signal (z-score),[23],-0.456
same,glycan array binding signal (z-score),[24],-0.458
same,glycan array binding signal (z-score),[25],-0.406
same,glycan array binding signal (z-score),[26],-0.462
same,glycan array binding signal (z-score),[27],1.05
same,glycan array binding signal (z-score),[28],1.2
same,glycan array binding signal (z-score),[29],-0.486
same,glycan array binding signal (z-score),[30],0.447
same,glycan array binding signal (z-score),[31],-0.001
same,glycan array binding signal (z-score),[32],-0.118
same,glycan array binding signal (z-score),[33],0.341
same,glycan array binding signal (z-score),[34],-0.189
same,glycan array binding signal (z-score),[35],-0.076
same,glycan array binding signal (z-score),[36],1.12
same,glycan array binding signal (z-score),[37],-0.389
same,glycan array binding signal (z-score),[38],-0.5
same,glycan array binding signal (z-score),[39],-0.5
same,glycan array binding signal (z-score),[40],-0.496
same,glycan array binding signal (z-score),[41],-0.489
same,glycan array binding signal (z-score),[42],-0.501
same,glycan array binding signal (z-score),[43],-0.214
same,glycan array binding signal (z-score),[44],-0.501
same,glycan array binding signal (z-score),[45],-0.501
